# PMC4336329 (PLoS ONE, 2015)
# Hit rate of the full screen: of about 310,000 compounds, about 2,200 (0.71%) showed an effect of 50% or more. Effects have a minus sign here. The list shows a part of the results.
# Biological target: human ether-à-go-go-related gene (hERG) potassium channel (human, UniProt Q12809)
# Assay: primary screen, population patch clamp on CHO cells stably expressing hERG
# Sequence of human ether-à-go-go-related gene (hERG) potassium channel (Q12809 whole entry, looked up): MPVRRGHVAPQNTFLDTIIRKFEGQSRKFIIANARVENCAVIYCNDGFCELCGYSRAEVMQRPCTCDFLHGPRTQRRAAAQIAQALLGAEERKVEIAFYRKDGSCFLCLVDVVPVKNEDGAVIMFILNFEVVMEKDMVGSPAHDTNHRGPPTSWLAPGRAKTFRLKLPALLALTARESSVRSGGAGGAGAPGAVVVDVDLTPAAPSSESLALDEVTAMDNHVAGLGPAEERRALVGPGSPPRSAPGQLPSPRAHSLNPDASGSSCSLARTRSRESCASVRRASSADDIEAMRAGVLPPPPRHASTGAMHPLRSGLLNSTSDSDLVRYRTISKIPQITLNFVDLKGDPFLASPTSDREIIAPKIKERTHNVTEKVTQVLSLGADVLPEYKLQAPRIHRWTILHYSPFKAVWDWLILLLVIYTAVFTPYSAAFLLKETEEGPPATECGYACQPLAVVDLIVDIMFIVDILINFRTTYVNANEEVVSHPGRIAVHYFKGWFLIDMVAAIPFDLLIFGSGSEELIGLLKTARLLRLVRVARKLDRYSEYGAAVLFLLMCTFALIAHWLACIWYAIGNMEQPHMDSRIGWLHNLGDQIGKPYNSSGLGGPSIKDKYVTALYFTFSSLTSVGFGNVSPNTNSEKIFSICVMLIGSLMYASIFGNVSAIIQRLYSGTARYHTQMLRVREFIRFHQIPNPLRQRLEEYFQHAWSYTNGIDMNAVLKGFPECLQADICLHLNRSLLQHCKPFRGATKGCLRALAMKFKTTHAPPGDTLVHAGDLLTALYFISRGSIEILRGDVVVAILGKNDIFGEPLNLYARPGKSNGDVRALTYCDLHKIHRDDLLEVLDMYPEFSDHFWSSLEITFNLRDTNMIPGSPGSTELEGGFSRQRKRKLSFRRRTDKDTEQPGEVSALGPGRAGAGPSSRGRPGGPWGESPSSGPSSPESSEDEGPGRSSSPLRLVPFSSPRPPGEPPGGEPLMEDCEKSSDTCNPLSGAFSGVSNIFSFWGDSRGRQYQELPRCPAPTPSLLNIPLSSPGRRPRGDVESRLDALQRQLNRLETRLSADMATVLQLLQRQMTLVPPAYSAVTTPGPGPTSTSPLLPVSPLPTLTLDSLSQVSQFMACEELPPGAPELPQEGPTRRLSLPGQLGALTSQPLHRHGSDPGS
row,Compound,"hERG current change (%, negative = inhibition) at 1uM [%]"
1,CCc1nn(-c2cc(Oc3ccccc3)nc(-c3ccccc3)n2)c(N)c1C#N,15.1
2,CCOC(=O)N1CCN(C(c2ccc(Cl)cc2)c2sc3nc(C)nn3c2O)CC1 (stereo not shown),-14.8
3,O=C(Nc1ccccc1)Nc1cccc(Cl)c1Cl,8.64
4,COC(c1ccccc1)c1nnc(CCC(=O)NCCCc2ccccc2)o1 (stereo not shown),18.5
5,CCOC(=O)CC(=O)CSc1nc2sc(C)cc2c(=O)n1Cc1ccco1,-19
6,CCn1c2ccccc2c2cc(NC(=O)c3ccccc3-c3ccccc3C(=O)O)ccc21,7.55
7,Cc1ccc(-c2cnc(SCC(=O)N3CCCc4ccccc43)n2C)cc1,6.36
8,O=C1CCCC2=C1C(c1cccs1)n1nc(SCc3ccccc3F)nc1N2 (stereo not shown),-2.44
9,O=C1c2cccc(OCC(=O)N3N=C(c4cccs4)CC3c3ccc(F)cc3)c2CCN1Cc1ccccc1 (stereo not shown),1.38
10,CCc1noc(C)c1C(=O)N1CCN(S(=O)(=O)c2ccc(Br)cc2)CC1,-6.81
11,CC(C)(O)C(=O)NN(C(=O)c1ccccc1)c1cccc(Br)c1,11.3
12,O=C(Nc1cc(Cl)ccc1Oc1ccccc1)C1=COCCO1,14.2
13,C=CCN(c1ccccc1)S(=O)(=O)c1c(C)[nH]c(=O)[nH]c1=O,12.2
14,Cc1c(NC(=O)COC(=O)c2ccc(F)c(S(=O)(=O)N3CCOCC3)c2)c(=O)n(-c2ccccc2)n1C,8.5
15,COc1ccc(CN2CCN(C(=O)c3cc(C4CC4)nn3-c3ccccc3)CC2)cc1F,-2.45
16,Cl.Cn1nnnc1SCCNCc1ccc(Cl)cc1,2.19
17,O=C(c1ccccc1F)c1cc2c(cc1[N+](=O)[O-])OCCO2,5.36
18,Cc1[nH]nc2c1C(c1cn[nH]c1-c1ccc(F)cc1)C(C#N)=C(N)O2 (stereo not shown),15.6
19,Cc1cccn2c(=O)c3cc(C#N)c(=NC(=O)c4cccnc4)n(CC4CCCO4)c3nc12 (stereo not shown),-10.2
20,COc1ccc(Cl)cc1NC(=O)C1(c2cccs2)CCOCC1,4.62
21,COc1cccc(/C=C(/C#N)c2ccc(Cl)cc2)c1OCc1cccc(C(=O)O)c1,14.3
22,Cc1ncoc1C(=O)N1CCCC(C(=O)c2ccc(-c3ccccc3)cc2)C1 (stereo not shown),10.9

row,Compound,"hERG current change (%, negative = inhibition) at 1uM [%]"
1,C[N+](C)(C)CC#CCN1CCCC1=O.[I-],26.1
2,COc1cc(/C=C/c2ccc3cccc([N+](=O)[O-])c3n2)ccc1OCC(=O)O,15.8
3,COc1ccc(Cl)cc1NC(=O)C1CCCN(c2ncnc3c2nc2n3CCCCC2)C1 (stereo not shown),6.84
4,CCc1c(C)sc(NC(=O)c2ccoc2C)c1C(N)=O,12.9
5,CCCCn1c(N)c(N(CCC(C)C)C(=O)COC(=O)c2ccco2)c(=O)[nH]c1=O,26.3
6,Cc1nc(N2CCOCC2)[nH]c(=O)c1CCC(C)C,0.0143
7,Cc1cccc(COc2ccc(/C=C3/C(=O)N(C)C(=S)N3C)cc2)c1,14.5
8,CC(=O)Nc1ccc(S(=O)(=O)N(C)CC(=O)OCC(=O)N(C)c2ccccc2)cc1,17.9
9,Cc1cc(=O)[nH]c(SCC(=O)Nc2ccc(S(N)(=O)=O)cc2)n1,6.42
10,CC(C)OC(=O)c1c(N)sc2c1CCCC2,4.85
11,CCn1ncc(/C=N/NC(=O)c2ccc3c(c2)OCO3)c1C,15.9
12,Cc1c(-c2nnc(SCC(=O)O)n2-c2ccccc2Br)nnn1-c1ccccc1.O,11.3
13,COc1ccc(OC)c(NC(=O)C(=S)NC2CCCCC2)c1,13
14,O=C(CN1CCc2ccccc2C1)Nc1ccccc1F,12.9
15,COc1ccc(/C=N/NC(=O)c2cc(-c3cccnc3)nc3ccccc23)c(OC)c1,13.9
16,CCC1C(=O)NCCN1C(=O)c1ccc2nc(Cc3cccc(Cl)c3)oc2c1 (stereo not shown),2.61
17,O=C1NC(c2ccco2)Nc2ccccc21 (stereo not shown),6.51
18,C[C@H](NC(=O)c1nc[nH]c1C(=O)NCC(=O)OCc1ccccc1)c1ccccc1,6.35
19,CCc1ccccc1N(CC)C(=O)C1CCN(c2ncnc3c2nc2n3CCCCC2)CC1,1.87
20,COc1ccc(CN2Cc3cccc4c3[C@@H](CC2=O)[C@H](O)[C@H](O)C4)cc1,11.4
21,N#C/C(=C/c1ccc(N2CCCCCC2)o1)c1ccc(Cl)cc1,11.3
22,COc1ccccc1CNC(=O)CCSCc1cccc(Cl)c1,1.23

row,Compound,"hERG current change (%, negative = inhibition) at 1uM [%]"
1,O=P(OC1CCCCC1)(OC1CCCCC1)C(O)c1ccc(Cl)cc1Cl (stereo not shown),-3.1
2,CSc1nc2ccc(Br)cc2[nH]1,9.82
3,Cc1cccc(OCc2nnc(-c3ccc(F)cc3)o2)c1,15.9
4,O=C(Nc1nc(-c2ccc(Cl)cc2)cs1)C1=COCCO1,9.53
5,Cc1nc(N2CCN(C(=O)c3ccco3)CC2)c(C#N)c2c1CCCC2,11.8
6,O=C(CCc1ccccc1)Nc1cccc(NC(=O)CCc2ccccc2)c1,1.59
7,Cc1ccn2c(c1)nc(=S)n2C(=O)c1ccco1,-1.69
8,O=C(Nc1c2c(nn1-c1ccccc1)CS(=O)C2)c1ccco1 (stereo not shown),10.5
9,COc1ccc(S(=O)(=O)N2CCN(C(=O)COc3ccc(C)c(C)c3)CC2)cc1OC,-11.1
10,COc1ccc(-n2c(C)cc(=O)[nH]c2=O)cc1,18.4
11,CC(=O)C1=C(O)C(=O)N(Cc2ccccc2)C1c1cccc([N+](=O)[O-])c1 (stereo not shown),4.38
12,CCOc1ccc(C(=O)NN2C(=S)NC(C)(C)C=C2C)cc1,15.5
13,CCOC(=O)c1c(NC(=S)N2CCOCC2)sc(C)c1C,14.5
14,CCCCNC(=O)CSc1nc(O)c(Cc2ccc(OC)cc2)c(=O)[nH]1,7.52
15,CCN(CC)c1ccc(C=C(c2nnnn2-c2ccccc2)c2nnnn2-c2ccccc2)cc1,6.33
16,CC(C)c1nnc(NC(=O)CCC(=O)N2CCN(c3ccccc3F)CC2)s1,13.1
17,CC(C)(C)c1ccc(NC(=O)COc2ccc(-n3ccnc3)cc2)cc1,3.68
18,O=C(N/C(=C/c1ccco1)C(=O)N1CCOCC1)c1cccs1,11.9
19,Cc1nc(NCCc2ccccc2)c2oc3ccccc3c2n1,18.7
20,Cc1nc2sc3c(c2c(=O)[nH]1)CCC3,6.19
21,COCCn1c(SC)nnc1-c1c[nH]c2ccccc12,15.9
22,CCOC(=O)CN(C(=O)CNC(=O)c1ccco1)C(C(=O)NC1CCCCC1)c1cccnc1 (stereo not shown),17.7

row,Compound,"hERG current change (%, negative = inhibition) at 1uM [%]"
1,O=C1COc2ccc(S(=O)(=O)N3CCC(C(=O)NCc4ccccc4)CC3)cc2N1,8.27
2,O=C(Nc1cc(Cl)cc(Cl)c1)c1coc(=O)c(Br)c1,15.8
3,COc1ccc(S(=O)(=O)N2CCN(C3CCCC(C)C3)CC2)cc1.O=C(O)C(=O)O (stereo not shown),2.71
4,CCOC(=O)CSc1nc(N)c(C#N)c(-c2cccs2)c1C#N,11.6
5,Cc1ccc2c(c1)Oc1ccc([N+](=O)[O-])cc1C(=O)N2,8.4
6,Cc1ccc(S(=O)(=O)Nc2ccc(NC(=O)Nc3cccc(C(F)(F)F)c3)cc2)cc1,12.3
7,COC(=O)c1ccccc1S(=O)(=O)N1CCC(C(=O)OCc2cccc(OC)c2OC)CC1,-3.4
8,CCc1ccc(OCC(=O)NC(NC(=S)Nc2ccccc2C)C(Cl)(Cl)Cl)cc1 (stereo not shown),5.61
9,CN(C(=O)CC1C(=O)NCCN1Cc1ccccc1F)C1CCOCC1 (stereo not shown),9.26
10,Cc1c(C(=O)NNS(=O)(=O)c2ccccc2)sc(=S)n1C,3.6
11,COC(=O)C(Nc1nccs1)(OC)C(F)(F)F (stereo not shown),-4.8
12,O=C1/C(=C/c2cccs2)CCc2ccccc21,3.21
13,Cc1cc(C)cc(OCC(=O)OCC(=O)N2CC(=O)Nc3ccccc32)c1,0.901
14,CCn1cc(-c2n[nH]c(=S)n2-c2ccc(C)cc2Br)c(=O)c2ccc(C)nc21,12.7
15,CCOc1nc(C)ccc1-c1noc(CC)n1,17.4
16,CC(C)C[C@H](NC(=O)Nc1ccc(S(N)(=O)=O)cc1)C(=O)O,8.92
17,O=C(Nc1cccc(S(=O)(=O)N2CCCCC2)c1)C1=NN(c2ccccc2)C(=O)CC1,0.762
18,CC(=O)c1c(C)[nH]c(C(=O)NCCc2c[nH]c3ccccc23)c1C,11.1
19,CC(=O)NS(=O)(=O)c1ccc(NC(=O)c2ccc(-n3nc(C)cc3C)cc2)cc1,5.8
20,CCOc1ccc2nc(NC(=O)CCC(=O)c3cccs3)sc2c1,5.4
21,CC(C)(CN1CCc2ccccc2C1)NS(=O)(=O)c1ccccc1,12.6
22,COc1ccc(Cl)cc1NC(=O)c1[nH]nc(OC)c1[N+](=O)[O-],10.8
